In PubChem BioAssay AID1454 (National Center for Advancing Translational Sciences (NCATS), 2008):
The whole screen tested about 130,000 compounds, of which about 550 (0.42%) were called active. Inconclusive results, whose numbers are uncertain, are shown with a selection of clear calls. Calls follow the shape of the dose curve; as a rule, active = well fitted inhibition curve with a large enough effect; inconclusive = small, poorly fitted or top-dose-only effect, or effect the other way; inactive = flat fitted curve, though single readings scatter. Potencies of inconclusive entries are left out as doubtful fits.

Test: qHTS Assay for Inhibitors of the ERK Signaling Pathway using a Homogeneous Screening Assay; Stimulation with EGF; also: nearly all actives have a fitted effect of over 55% in size;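 as to activity change, negative = inhibition: plate controls were stimulated vehicle wells for no effect and unstimulated vehicle basal for full effect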
Details: HEK293-V1b, EGF-stimulated phospho-ERK AlphaScreen; activity change, negative = inhibition: at the top concentration
Summary of the method: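 Phospho-ERK1/2 measured by AlphaScreen (SureFire) after 5 min 25 nM EGF stimulation of V1b-expressing HEK293 cells preincubated 30 min at 37C with titrated compounds; data scaled to DMSO and EGF controls, Hill-fitted AC50.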
Potency is read from the fitted curve at half-maximal effect; tags tell the direction and shape of the fitted curve.

| Structure (SMILES) | Potency | activity change, negative = inhibition |
| --- | --- | --- |
| Cc1ccc(NS(=O)(=O)c2ccc(N3CCN(c4ccc(O)cc4)CC3)c([N+](=O)[O-])c2)c(C)c1 | inconclusive [inhibitor, single point] |  |
| O=[N+]([O-])c1cc(C(F)(F)F)cc([N+](=O)[O-])c1NN=C1CCCCC1 | active: 17.8 µM |  |
| COc1cc(OC)cc(C(=O)NCC(=O)OCC(=O)/C=C2/N(C)c3ccccc3C2(C)C)c1 | inconclusive [inhibitor, single point] |  |
| CC1C/C(=C/c2ccncc2)C(=O)/C(=C/c2ccncc2)C1 (stereo not given) | inconclusive [inhibitor, single point] |  |
| Cc1cc(N2CCCC2)ccc1/C=C1/C(=O)N(C)C(=S)N1C | inconclusive [inhibitor, full curve] |  |
| CC1=NN(c2ccccc2)C(=O)/C1=C/C=C/C=C/N(C)C | inconclusive [inhibitor, partial curve] |  |
| COc1ccc(OC)c(/C=C2\SC(=S)N(N3CCOCC3)C2=O)c1 | inconclusive [inhibitor, partial curve] |  |
| Cc1ccc2c(c1)c1c3n2CCCNC3CCC1 (stereo not given) |  | inactive: -14.9% [at 57.5 µM] |
| O=C(N=Nc1c(O)n(Cc2ccccc2)c2ccccc12)c1ccncc1 | inconclusive [inhibitor, single point] |  |
| CCN1CCCC(OC(=O)c2cc(-c3ccc(C)cc3)nc3ccccc23)C1 (stereo not given) | inconclusive [inhibitor, single point] |  |
| O=C(Nc1cccc(S(=O)(=O)Nc2ccccc2F)c1)c1ccc2ccccc2n1 | inconclusive [inhibitor, single point] |  |
| Cc1cc(C)cc(C(=O)NCC(=O)OCC(=O)Nc2cccnc2Cl)c1 | inconclusive [activator, partial curve, poor fit] |  |
| O=C(Nc1cccc(-c2nc3cccnc3s2)c1)c1cccnc1Cl | inconclusive [inhibitor, partial curve] |  |
| COc1ccc(C)c2sc(=NC(=O)c3cccc(N4C(=O)CCC4=O)c3)n(C)c12 | inconclusive [inhibitor, single point] |  |
| c1ccc(OCCOCCN2CCN(C(c3ccccc3)c3ccccc3)CC2)cc1 | inconclusive [inhibitor, single point] |  |
| CN(C)c1ccnc(-c2ccccc2C(F)(F)F)n1 | inconclusive [activator, full curve, poor fit] |  |
| Clc1cncc(Cl)c1NNc1c2ccccc2nc2ccccc12 | active: 12.6 µM |  |
| CCC1=C2CC[C@H]3C(=O)N(CC)C(=O)[C@H]3[C@H]2[C@@]2(C)C(=O)N(CC(=O)OC)C(=O)N2C1=O | inconclusive [inhibitor, single point] |  |
| COC(=O)c1ccc2c(c1)NC(=O)C(N(CC(C)C)CC(C)C)S2 (stereo not given) |  | inactive: -8.62% [at 57.5 µM] |
| Cc1ccc(-n2nc(-c3ccccc3)cc2Nc2ccccc2N)cc1 | inconclusive [inhibitor, partial curve] |  |
| CCNC(=O)NC(=O)C(C)OC(=O)Cc1coc2cc3c(cc12)CCC3 (stereo not given) | inconclusive [inhibitor, single point] |  |
| CC(=O)SC1CC2=CC(=O)CC[C@@]2(C)C2CC[C@@]3(C)[C@@H](CC[C@@]34CCC(=O)O4)C12 (stereo not given in full) |  | inactive: 9.58% |

| Structure (SMILES) | Potency | activity change, negative = inhibition |
| --- | --- | --- |
| CC(OC(=O)c1ccncc1)C(=O)Nc1cc(S(=O)(=O)N2CCCCC2)ccc1Cl (stereo not given) |  | inactive: 15.1% |
| CCCCN1/C(=C/c2ccc3ccccc3[n+]2CC)Sc2ccccc21 | inconclusive [inhibitor, single point] |  |
| CC(=O)OC1C=C[C@]2(C)C(CC(OC(C)=O)[C@@]3(C)C4=CC(=O)OC(c5ccoc5)[C@]4(C)CCC23)C1(C)C (stereo not given in full) |  | inactive: -0.0156% |
| O=C(Nc1ccc(Cl)cc1)Nc1ccccc1NS(=O)(=O)c1cccs1 | inconclusive [inhibitor, single point] |  |
| NC(=O)NOCc1ccc(Cl)cc1Cl |  | inactive: -10.1% |
| CN1CCN(C(=S)c2cn(Cc3ccc(Br)cc3)c3ccccc23)CC1 | inconclusive [inhibitor, single point] |  |
| Cc1ccc(Nc2nc(NCc3ccco3)c3ccccc3n2)cc1 | inconclusive [inhibitor, single point] |  |
| COC(=O)CCC(=O)OC1(C)C(=O)C=C2C=C(CCCNC(=O)OC(C)(C)C)OC=C2C1=O (stereo not given) |  | inactive: -6.11% |
| Cc1cc(NC(=O)CSc2nc3cc(C(=O)NCCCOC(C)C)ccc3c(=O)n2Cc2ccco2)no1 |  | inactive: 5.26% |
| CCCC/C(O)=C1\C(=O)CCCC1=NCCc1c(C)[nH]c2ccc(OC)cc12 | inconclusive [inhibitor, partial curve] |  |
| CO[C@H]1C=CO[C@@]2(C)Oc3c(C)c(O)c4c(O)c(c5c(nc6cc(C)ccn65)c4c3C2=O)NC(=O)C(C)=CC=C[C@H](C)[C@H](O)[C@@H](C)[C@@H](O)[C@@H](C)[C@H](OC(C)=O)[C@@H]1C | inconclusive [inhibitor, partial curve] |  |
| O=[N+]([O-])c1ccc(C(=S)N2CCN(c3ccc(F)cc3)CC2)cc1 | inconclusive [inhibitor, partial curve] |  |
| CC(Cc1ccccc1)C(=O)N[C@@H](CO)Cc1ccccc1 (stereo not given in full) | inconclusive [inhibitor, partial curve] |  |
| Cc1sc(NC(=O)c2ccco2)c(C(c2cccnc2)N2CCN(CCO)CC2)c1C (stereo not given) |  | inactive: -1.89% |
| Cc1cccc(NC(=O)c2ccc(N3CCOCC3)c([N+](=O)[O-])c2)n1 | inconclusive [inhibitor, single point] |  |
| Cc1[nH]c2ccccc2c1/C=N/Nc1nc2ccccc2[nH]1 | inconclusive [inhibitor, single point] |  |
| CCCn1c(-c2ccc(F)cc2)nc2c(N3CCC(N(C)C)C3)nc(C)nc21 (stereo not given) |  | inactive: -3.59% |
| COc1ccc(/C=N/NC(=O)c2ccncc2)cc1CN1CCCc2ccccc21 | inconclusive [inhibitor, partial curve] |  |
| S=C(NCc1cccnc1)Nc1ccc(Oc2ccc(Cl)cc2)cc1 | inconclusive [inhibitor, partial curve, poor fit] |  |
| COc1ccc(NC(=O)Cn2ncc(Cl)c(Cl)c2=O)cc1S(=O)(=O)N1CCOCC1 |  | inactive: -6.82% |
| Cc1[nH]c2ccccc2c1SCCNC(=O)c1ccc(Br)o1 | inconclusive [inhibitor, single point] |  |
| CCOc1ccccc1N(CC(=O)NC1CCCCC1)C(=O)c1nsc(Cl)c1Cl | inconclusive [inhibitor, single point] |  |

| Structure (SMILES) | Potency | activity change, negative = inhibition |
| --- | --- | --- |
| CCS(=O)(=O)c1ccc(N=Nc2ccc(O)c3ncccc23)c(OC)c1 | inconclusive [inhibitor, partial curve] |  |
| CC1=NN(c2nc(-c3ccc(C)cc3)cs2)C(=O)C1N=Nc1cccc(C)c1 (stereo not given) | inconclusive [inhibitor, full curve] |  |
| COc1ccc(C(C)=O)cc1COC(=O)c1cc(C)nc2ccccc12 | inconclusive [inhibitor, single point] |  |
| Cc1csc2c(N3CCN(C(=O)Nc4ccc(Cl)c(Cl)c4)CC3)ncnc12 | inconclusive [inhibitor, single point] |  |
| Cc1ccc(Cl)c(OCCCN(C)Cc2ccccc2)c1 | inconclusive [inhibitor, single point] |  |
| COc1cc(O)c(C(CC(=O)N2CCCC(C)C2)c2ccc(N(C)C)cc2)c(OC)c1 (stereo not given) | inconclusive [inhibitor, single point] |  |
| COc1cccc(N2CCN(C(=O)CCCCCNc3nc(=S)[nH]c4ccccc34)CC2)c1 | inconclusive [inhibitor, partial curve] |  |
| Cc1ccc(C(=O)N/N=C2\SCC(=O)N2c2cc(C)ccc2C)cc1 | inconclusive [inhibitor, single point] |  |
| Cc1cc(O)ccc1Nc1nc(-c2cccs2)cs1 | inconclusive [inhibitor, partial curve] |  |
| Cc1ccccc1OCC(=O)NNC(=O)Nc1ccccc1 |  | inactive: 1.48% |
| CN(C(=O)c1cc2c(s1)-c1ccccc1S(=O)(=O)C2)c1ccccc1F | inconclusive [inhibitor, partial curve] |  |
| O=Nc1c(O)n(Cc2ccccc2)c2ccccc12 | inconclusive [inhibitor, full curve, poor fit] |  |
| Cc1ccc(N=C2NC(=O)S/C2=C\c2ccco2)cc1 | inconclusive [activator, full curve] |  |
| CCOC(=O)C1=C(C)Nc2nc3ccccc3n2C1c1ccc(O)cc1 (stereo not given) |  | inactive: -18.4% [at 57.5 µM] |
| O=C(Nc1nc(-c2ccc(Cl)s2)cs1)c1ccco1 | inconclusive [inhibitor, single point] |  |
| COc1ccc(NC(=O)C(=S)NC2CCCCC2)cc1 | inconclusive [inhibitor, single point] |  |
| NC(C(=O)N[C@@H]1C(=O)N2C(C(=O)O)=C(Cl)CS[C@H]12)c1ccccc1 (stereo not given in full) |  | inactive: 1.86% |
| Fc1cccc2sc(Nc3nc4ccccc4s3)nc12 | inconclusive [inhibitor, single point] |  |
| COc1ccc2cc(-c3[nH]ncc3CN3CCCCO3)ccc2c1 | inconclusive [inhibitor, single point] |  |
| Cc1cc(O)c(-c2cc(O)c(C)cc2O)cc1O | inconclusive [inhibitor, single point] |  |
| COc1cccc(CNc2nc3ccccc3n2CCN2CCCCC2)c1OC | inconclusive [inhibitor, single point] |  |
